Target: the molecule itself
Test: cryo-EM structure

B1: Human mitochondrial RNA polymerase (POLRMT) Δ42 (enzyme, UniProt O00411 43-1230, looked up)
chain: SASPQEQDQDRRKDWGHVELLEVLQARVRQLQAESVSEVVVNRVDVARLPECGSGDGSLQPPRKVQMGAKDATPVPCGRWAKILEKDKRTQQMRMQRLKAKLQMPFQSGEFKALTRRLQVEPRLLSKQMAGCLEDCTRQAPESPWEEQLARLLQEAPGKLSLDVEQAPSGQHSQAQLSGQQQRLLAFFKCCLLTDQLPLAHHLLVVHHGQRQKRKLLTLDMYNAVMLGWARQGAFKELVYVLFMVKDAGLTPDLLSYAAALQCMGRQDQDAGTIERCLEQMSQEGLKLQALFTAVLLSEEDRATVLKAVHKVKPTFSLPPQLPPPVNTSKLLRDVYAKDGRVSYPKLHLPLKTLQCLFEKQLHMELASRVCVVSVEKPTLPSKEVKHARKTLKTLRDQWEKALCRALRETKNRLEREVYEGRFSLYPFLCLLDEREVVRMLLQVLQALPAQGESFTTLARELSARTFSRHVVQRQRVSGQVQALQNHYRKYLCLLASDAEVPEPCLPRQYWEELGAPEALREQPWPLPVQMELGKLLAEMLVQATQMPCSLDKPHRSSRLVPVLYHVYSFRNVQQIGILKPHPAYVQLLEKAAEPTLTFEAVDVPMLCPPLPWTSPHSGAFLLSPTKLMRTVEGATQHQELLETCPPTALHGALDALTQLGNCAWRVNGRVLDLVLQLFQAKGCPQLGVPAPPSEAPQPPEAHLPHSAAPARKAELRRELAHCQKVAREMHSLRAEALYRLSLAQHLRDRVFWLPHNMDFRGRTYPCPPHFNHLGSDVARALLEFAQGRPLGPHGLDWLKIHLVNLTGLKKREPLRKRLAFAEEVMDDILDSADQPLTGRKWWMGAEEPWQTLACCMEVANAVRASDPAAYVSHLPVHQDGSCNGLQHYAALGRDSVGAASVNLEPSDVPQDVYSGVAAQVEVFRRQDAQRGMRVAQVLEGFITRKVVKQTVMTVVYGVTRYGGRLQIEKRLRELSDFPQEFVWEASHYLVRQVFKSLQEMFSGTRAIQHWLTESARLISHMGSVVEWVTPLGVPVIQPYRLDSKVKQIGGGIQSITYTHNGDISRKPNTRKQKNGFPPNFIHSLDSSHMMLTALHCYRKGLTFVSVHDCYWTHAADVSVMNQVCREQFVRLHSEPILQDLSRFLVKRFCSEPQKILEASQLKETLQAVPKPGAFDLEQVKRSTYFFS
stoichiometry N: 2

From paper PMC11642874 (bioRxiv, 2024)
